# Some of the results follow.
# B1: Neuropilin-1 (Homo sapiens), O14786 (protein)
# chain: FKCMEALGMESGEIHSDQITASSQYSTNWSAERSRLNYPENGWTPGEDSYREWIQVDLGLLRFVTAVGTQGAISKETKKKYYVKTYKIDVSSNGEDWITIKEGNKPVLFQGNTNPTDVVVAVFPKPLITRFVRIKPATWETGISMRFEVYGCKITDYPCSGMLGMVSGLISDSQITSSNQGDRNWMPENIRLVTSRSGWALPPAPHSYINEWLQIDLGEEKIVRGIIIQGGKHRENKVFMRKFKIGYSNNGSDWKMIMDDSKRKAKSFEGNNNYDTPELRTFPALSTRFIRIYPERATHGGLGLRMELLGCEVE
# Experiments:
# Assay in all cases: glycan array binding signal (z-score within array); higher = stronger binding
# Settings in all cases: glycan notation: IUPAC condensed, linker removed
# [1] = molecular target: Fuc(a1-2)[Gal(a1-3)]Gal(b1-4)GlcNAc(b1-2)Man(a1-3)[Fuc(a1-2)[Gal(a1-3)]Gal(b1-4)GlcNAc(b1-2)Man(a1-6)]Man(b1-4)GlcNAc(b1-4)GlcNAc
# How it was run: (§1)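 Columns mapping to the same glycan were averaged after glycan names were converted to IUPAC-condensed notation. The data come from 3228 arrays in the Consortium for Functional Glycomics database, limited to those with an available protein sequence. Binding is reported as a within-array Z-score averaged across arrays of one protein sequence and across linkers.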
# [2] = molecular target: Fuc(a1-2)[Gal(a1-3)]Gal(b1-4)[Fuc(a1-3)]GlcNAc
# How it was run: as §1
# [3] = molecular target: Fuc(a1-2)[Gal(a1-4)]Gal(b1-4)GlcNAc
# How it was run: as §1
# [4] = molecular target: Fuc(a1-2)[GalNAc(a1-3)]Gal
# How it was run: as §1
# [5] = molecular target: Fuc(a1-2)[GalNAc(a1-3)]Gal(b1-3)GlcNAc
# How it was run: as §1
# [6] = molecular target: Fuc(a1-2)[GalNAc(a1-3)]Gal(b1-3)GlcNAc(b1-2)Man(a1-3)[Fuc(a1-2)[GalNAc(a1-3)]Gal(b1-3)GlcNAc(b1-2)Man(a1-6)]Man(b1-4)GlcNAc(b1-4)GlcNAc
# How it was run: as §1
# [7] = molecular target: Fuc(a1-2)[GalNAc(a1-3)]Gal(b1-4)Glc
# How it was run: as §1
# [8] = molecular target: Fuc(a1-2)[GalNAc(a1-3)]Gal(b1-4)GlcNAc
# How it was run: as §1
# [9] = molecular target: Fuc(a1-2)[GalNAc(a1-3)]Gal(b1-4)GlcNAc(b1-2)Man(a1-3)[GalNAc(a1-3)[Fuc(a1-2)]Gal(b1-4)GlcNAc(b1-2)Man(a1-6)]Man(b1-4)GlcNAc(b1-4)GlcNAc
# How it was run: as §1
# [10] = molecular target: Fuc(a1-2)[GalNAc(a1-3)]Gal(b1-4)GlcNAc(b1-3)Gal(b1-4)GlcNAc
# How it was run: as §1
# [11] = molecular target: Fuc(a1-2)[GalNAc(a1-3)]Gal(b1-4)GlcNAc(b1-3)Gal(b1-4)GlcNAc(b1-3)Gal(b1-4)GlcNAc
# How it was run: as §1
# [12] = molecular target: Fuc(a1-2)[GalNAc(a1-3)]Gal(b1-4)[Fuc(a1-3)]GlcNAc
# How it was run: as §1
# [13] = molecular target: Fuc(a1-2)[GalNAc(a1-4)]Gal(b1-4)GlcNAc
# How it was run: as §1
# [14] = molecular target: Fuc(a1-2)[GalNAc(b1-3)]Gal
# How it was run: as §1
# Fuc(a1-3)GlcNAc = molecular target: Fuc(a1-3)GlcNAc
# How it was run: as §1
# [15] = molecular target: Fuc(a1-3)[Gal(b1-4)]Glc6S
# How it was run: as §1
# [16] = molecular target: Fuc(a1-3)[Gal(b1-4)]GlcNAc
# How it was run: as §1
# [17] = molecular target: Fuc(a1-3)[Gal(b1-4)]GlcNAc(b1-2)Man(a1-3)[Fuc(a1-3)[Gal(b1-4)]GlcNAc(b1-2)Man(a1-6)]Man(b1-4)GlcNAc(b1-4)GlcNAc
# How it was run: as §1
# [18] = molecular target: Fuc(a1-3)[Gal(b1-4)]GlcNAc(b1-2)Man(a1-6)[Gal(b1-4)GlcNAc(b1-2)Man(a1-3)]Man(b1-4)GlcNAc(b1-4)GlcNAc
# How it was run: as §1
# [19] = molecular target: Fuc(a1-3)[Gal(b1-4)]GlcNAc(b1-3)Gal(b1-3)[Fuc(a1-4)]GlcNAc
# How it was run: as §1
# [20] = molecular target: Fuc(a1-3)[Gal(b1-4)]GlcNAc(b1-4)Gal(b1-4)[Fuc(a1-3)]GlcNAc
# How it was run: as §1
# [21] = molecular target: Fuc(a1-3)[Gal(b1-4)]GlcNAc(b1-4)Gal(b1-4)[Fuc(a1-3)]GlcNAc(b1-4)Gal(b1-4)[Fuc(a1-3)]GlcNAc
# How it was run: as §1
# [22] = molecular target: Fuc(a1-3)[Gal(b1-4)]GlcNAc6S
# How it was run: as §1
# [23] = molecular target: Fuc(a1-3)[Gal3S(b1-4)]Glc6S
# How it was run: as §1
# [24] = molecular target: Fuc(a1-3)[Gal3S(b1-4)]GlcNAc
# How it was run: as §1
# [25] = molecular target: Fuc(a1-3)[Gal3S(b1-4)]GlcNAc6S
# How it was run: as §1
# [26] = molecular target: Fuc(a1-3)[GalNAc(b1-4)]GlcNAc
# How it was run: as §1
# Fuc(a1-4)GlcNAc = molecular target: Fuc(a1-4)GlcNAc
# How it was run: as §1
# Fuc(b1-3)GlcNAc = molecular target: Fuc(b1-3)GlcNAc
# How it was run: as §1
# Gal(a1-2)Gal = molecular target: Gal(a1-2)Gal
# How it was run: as §1
# Gal(a1-3)Gal = molecular target: Gal(a1-3)Gal
# How it was run: as §1
# Gal(a1-3)Gal(b1-3)GlcNAc = molecular target: Gal(a1-3)Gal(b1-3)GlcNAc
# How it was run: as §1
# Gal(a1-3)Gal(b1-4)Glc = molecular target: Gal(a1-3)Gal(b1-4)Glc
# How it was run: as §1
# Gal(a1-3)Gal(b1-4)GlcNAc = molecular target: Gal(a1-3)Gal(b1-4)GlcNAc
# How it was run: as §1
# [27] = molecular target: Gal(a1-3)Gal(b1-4)[Fuc(a1-3)]GlcNAc
# How it was run: as §1
# [28] = molecular target: Gal(a1-3)Gal(b1-4)[Fuc(a1-3)]GlcNAc(b1-2)Man(a1-3)[Gal(a1-3)Gal(b1-4)[Fuc(a1-3)]GlcNAc(b1-2)Man(a1-6)]Man(b1-4)GlcNAc(b1-4)GlcNAc
# How it was run: as §1
# Gal(a1-3)GalNAc = molecular target: Gal(a1-3)GalNAc
# How it was run: as §1
# [29] = molecular target: Gal(a1-3)[Gal(a1-4)]Gal(b1-4)GlcNAc
# How it was run: as §1
# Gal(a1-4)Gal(b1-4)Glc = molecular target: Gal(a1-4)Gal(b1-4)Glc
# How it was run: as §1
# Gal(a1-4)Gal(b1-4)GlcNAc = molecular target: Gal(a1-4)Gal(b1-4)GlcNAc
# How it was run: as §1
# [30] = molecular target: Gal(a1-4)Gal(b1-4)GlcNAc(b1-3)Gal(b1-4)Glc
# How it was run: as §1
# Gal(a1-4)GlcNAc = molecular target: Gal(a1-4)GlcNAc
# How it was run: as §1
# Gal(a1-6)Glc = molecular target: Gal(a1-6)Glc
# How it was run: as §1
# Gal(b1-2)Gal = molecular target: Gal(b1-2)Gal
# How it was run: as §1
# Gal(b1-3)Gal = molecular target: Gal(b1-3)Gal
# How it was run: as §1
binder,measurement,setting,value
B1,glycan array binding signal (z-score),[1],6.43
same,glycan array binding signal (z-score),[2],0.116
same,glycan array binding signal (z-score),[3],-0.207
same,glycan array binding signal (z-score),[4],-0.23
same,glycan array binding signal (z-score),[5],-0.089
same,glycan array binding signal (z-score),[6],1.01
same,glycan array binding signal (z-score),[7],-0.198
same,glycan array binding signal (z-score),[8],-0.225
same,glycan array binding signal (z-score),[9],5.34
same,glycan array binding signal (z-score),[10],-0.094
same,glycan array binding signal (z-score),[11],-0.007
same,glycan array binding signal (z-score),[12],0.088
same,glycan array binding signal (z-score),[13],-0.301
same,glycan array binding signal (z-score),[14],-0.276
same,glycan array binding signal (z-score),Fuc(a1-3)GlcNAc,-0.3
same,glycan array binding signal (z-score),[15],0.455
same,glycan array binding signal (z-score),[16],-0.168
same,glycan array binding signal (z-score),[17],10.4
same,glycan array binding signal (z-score),[18],-0.302
same,glycan array binding signal (z-score),[19],0.083
same,glycan array binding signal (z-score),[20],-0.136
same,glycan array binding signal (z-score),[21],-0.255
same,glycan array binding signal (z-score),[22],0.145
same,glycan array binding signal (z-score),[23],3.54
same,glycan array binding signal (z-score),[24],-0.158
same,glycan array binding signal (z-score),[25],1.03
same,glycan array binding signal (z-score),[26],-0.249
same,glycan array binding signal (z-score),Fuc(a1-4)GlcNAc,-0.209
same,glycan array binding signal (z-score),Fuc(b1-3)GlcNAc,-0.32
same,glycan array binding signal (z-score),Gal(a1-2)Gal,-0.146
same,glycan array binding signal (z-score),Gal(a1-3)Gal,-0.255
same,glycan array binding signal (z-score),Gal(a1-3)Gal(b1-3)GlcNAc,-0.296
same,glycan array binding signal (z-score),Gal(a1-3)Gal(b1-4)Glc,0.116
same,glycan array binding signal (z-score),Gal(a1-3)Gal(b1-4)GlcNAc,0.097
same,glycan array binding signal (z-score),[27],-0.27
same,glycan array binding signal (z-score),[28],3.1
same,glycan array binding signal (z-score),Gal(a1-3)GalNAc,-0.159
same,glycan array binding signal (z-score),[29],-0.225
same,glycan array binding signal (z-score),Gal(a1-4)Gal(b1-4)Glc,-0.244
same,glycan array binding signal (z-score),Gal(a1-4)Gal(b1-4)GlcNAc,-0.196
same,glycan array binding signal (z-score),[30],-0.226
same,glycan array binding signal (z-score),Gal(a1-4)GlcNAc,-0.275
same,glycan array binding signal (z-score),Gal(a1-6)Glc,-0.168
same,glycan array binding signal (z-score),Gal(b1-2)Gal,-0.245
same,glycan array binding signal (z-score),Gal(b1-3)Gal,0.075
